“And” between values parts separate entries of the source, which are not always exact repeats. Equal entries are not always repeated. Screen size: about 310,000 compounds; about 11,000 (3.5%) were called active. The shares of active, inactive and inconclusive entries below differ from those in the screen. Calls come from the whole dose curve; as a rule, active = well fitted inhibition curve with a large enough effect; inconclusive = small, poorly fitted or top-dose-only effect, or effect the other way; inactive = flat fitted curve, though single readings scatter. Potencies of inconclusive entries are left out as doubtful fits.
Test: VP16 counterscreen qHTS for inhibitors of ROR gamma transcriptional activity;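 note: Gal4-VP16 expression switched on by copper sulfate through the metallothionein promoter; nearly all actives have a fitted effect of over 50% in size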
Conditions: Drosophila S2 Gal4-VP16 UAS-luciferase, luminescence, 20 h; activity, negative = inhibition: at 53.6 µM (top of the series)
% is set by controls: 0 for no effect and ±100 for the full control effect; potency is the fitted concentration of half-maximal effect; tags give direction and shape of the fitted curve.

SMILES	Potency	activity, negative = inhibition
O=C(Nc1ccc(N2CCN(C(=O)c3ccco3)CC2)c(Cl)c1)c1c(F)c(F)c(F)c(F)c1F	inconclusive [inhibitor, single point]	
CC(C)(C)c1ccc(/C=N/NC(=S)Nc2cccnc2)cc1	active: 1.26 µM	
O=C(CN1CCOCC1)Nc1ccc(Br)cn1	inactive	
CCn1c2ccccc2c2cc(NC(=O)COc3ccccc3)ccc21	inactive	
CCC(=O)N1N=C(c2ccc(NS(C)(=O)=O)cc2)CC1c1ccc(N(C)C)cc1 (configuration not stated)	inconclusive [activator, single point]	
COc1cc(/C=C2\SC(N)=NC2=O)cc(OC)c1	inconclusive [activator, single point]	
COc1ccc(/C=C/C(=O)Nc2ccccc2C(=O)O)cc1OC	active: 1.26 µM and active: 7.94 µM	
Cc1ccc(SCc2[nH]nc3c2C(C(C)C)C(C#N)=C(N)O3)cc1 (configuration not stated)	inactive	
COC(=O)N1C(=O)[C@](c2ccccc2)(C2CCCC2)N1C(=O)OC	inconclusive [inhibitor, single point]	
FC(F)Oc1ccc(/C=N/c2c(-c3ccc(OC(F)F)cc3)nc3n2CCS3)cc1	inconclusive [activator, partial curve]	
Fc1ccc(-c2n[nH]c(=S)n2Cc2ccccc2)cc1	active: 11.2 µM	
CC1(C)Cc2c(sc3c2c(=N)n(Cc2ccco2)c(=O)n3Cc2ccc(F)cc2)CO1	inconclusive [inhibitor, partial curve]	
O=C(NC(=S)NC1CCCCC1)c1ccccc1	active: 7.08 µM	
CCCCNC(=S)NNC(=O)CCn1cc(C)cn1	active: 6.31 µM	
Cc1[nH]c2ccccc2c1/C=N/NC(N)=S	inactive	
Cc1ccc(C(=O)Cc2nc3ccccc3[nH]2)cc1	inconclusive [inhibitor, single point]	
CCCc1cc(C(=O)Nc2ccc(C(=O)c3ccccc3)cc2)n(C)n1	inconclusive [inhibitor, single point]	
O=C(COc1ccc2ccccc2c1Br)Nc1ccncc1	inconclusive [inhibitor, single point]	
O=[N+]([O-])c1c(C(Cl)Cl)nn(-c2ccccc2)c1N1CCCC1	inconclusive [inhibitor, full curve]	
O=C(COc1ccc(Cl)cc1)Nc1nnc(-c2ccco2)o1	inconclusive [inhibitor, single point]	
CC(=O)/C(C#N)=C1\NC(=O)C(Cc2cc(Cl)ccc2Cl)S1 (configuration not stated)	inactive	
O=C(Nc1nc2ccccc2[nH]1)c1ccc(OC(F)F)cc1	inconclusive [inhibitor, partial curve, poor fit]	
CCCn1c(NC(=O)c2cccc(C)c2C)nc2ccccc21	active: 2.24 µM	
Cc1ccnc(Nc2nc(-c3ccc(O)cc3)cs2)c1	active: 3.98 µM	
Cc1ccc(-c2cc(-c3ccc(F)cc3)c(C#N)c(N)n2)o1	inconclusive [inhibitor, single point]	
CN1C(=O)c2ccccc2N(C)C1c1cccc(O)c1 (configuration not stated)	inactive	

SMILES	Potency	activity, negative = inhibition
NS(=O)(=O)c1ccc2nc(NC(=O)c3ccc4ncsc4c3)sc2c1	inconclusive [inhibitor, single point]	
Cc1cc(C)c2sc(NC(=O)C3=COCCO3)nc2c1	active: 5.62 µM	
CC(C)N(Cc1ccccc1)S(=O)(=O)c1ccc(F)cc1	inconclusive [inhibitor, single point]	
COc1ccc(OC)c(/C=N/Nc2nncn2/N=C/c2cc(OC)ccc2OC)c1	inconclusive [inhibitor, single point]	
CCCc1ccc(OC(=O)c2ccc(O)cc2Cl)cc1	active: 3.98 µM	
S=C1NCCc2ccc(Cl)cc2C1c1ccccc1 (configuration not stated)	active: 2.51 µM	
CCc1ccc(OCCn2cccn2)cc1	inactive	
Cc1cccc2sc(N)nc12	inactive	
CCOC(=O)c1ccc(NC(=O)c2nc[nH]c2C(=O)N(C)Cc2ccccc2)cc1	inconclusive [inhibitor, single point]	
COc1ccc(N(CC(=O)NCCC(C)C)C(=O)c2snc(C(=O)NC3CCCCC3)c2N)c(OC)c1	inactive	
O=S(=O)(Cc1ncc(C(F)(F)F)cc1Cl)c1ccccc1	inactive	
COc1ccc(C(=O)NC(=S)NCc2ccco2)cc1Br	active: 6.31 µM	
CCOC(=O)COc1coc(CN2CCN(c3ccccc3)CC2)cc1=O	inactive	
Cc1ccc(/C=C/C(=O)NC(=S)N2CCN(C)CC2)cc1	active: 12.6 µM	
COc1ccc(/C=C/C(=O)NC2CCCCCC2)cc1S(=O)(=O)N1CCOCC1	inconclusive [activator, single point]	
O=C(Cc1csc(Nc2nc(=S)[nH]c3ccccc23)n1)NCc1cccc(Cl)c1	inconclusive [inhibitor, single point]	
O=C(COc1ccc(S(=O)(=O)N2CCOCC2)cc1Cl)NC1CC1	inactive	
COc1ccc(N2CCN(C(=O)Cn3c(=O)[nH]c4ccccc4c3=O)CC2)cc1	inactive	
O=C(CN1CCN(c2ccccc2F)CC1)c1ccc(O)c(O)c1	inactive	
COc1ccc(N(C(=O)c2ccco2)C(C(=O)NC2CCCC2)c2ccc(N(C)C)cc2)cc1OC (configuration not stated)	inconclusive [activator, single point]	
CN(CC(=O)Nc1ccccc1Br)C(=O)c1cccnc1Nc1cccc(C(F)(F)F)c1	inconclusive [inhibitor, single point]	
Cc1cccc(OCC(=O)NNC(=O)c2cc3ccccc3oc2=O)c1	inactive	
CCOC(=O)c1c(NC(=O)C2=C(C)NC(=S)NC2c2ccc(F)cc2)sc(C)c1C (configuration not stated)	inconclusive [inhibitor, single point]	
COc1ccc(CC(=O)Nc2ccccc2N2CCCC2)cc1	inactive	
COc1cccc(-c2ccc3ncnc(NCc4cccnc4)c3c2)c1	inconclusive [inhibitor, single point]	
CCN(c1ccccc1)S(=O)(=O)c1ccc(C(=O)Oc2ccc(C(C)=O)cc2)cc1	active: 10 µM	

SMILES	Potency	activity, negative = inhibition
Cc1ccc2[nH]c3c(N4CCN(Cc5ccccc5)CC4)ncnc3c2c1	active: 3.55 µM	
CC1CN(C(=S)NC(=O)c2cccc([N+](=O)[O-])c2)CC(C)O1 (configuration not stated)	active: 1.26 µM	
CC(NC(=O)/C(=C/c1ccc(OC(F)F)cc1)c1ccccc1)c1ccccc1 (configuration not stated)	inconclusive [inhibitor, partial curve, poor fit]	
N=c1c2c3c(sc2ncn1Cc1ccco1)CCCCC3	inconclusive [inhibitor, single point]	
COc1ccc(N=C2O/C(=C/c3sc(=S)n(CC4CCCO4)c3O)N=C2C#N)cc1 (configuration not stated)	inactive	
CCCOc1ccccc1N/C(N)=N/c1nc(C)cc(C)n1	inconclusive [inhibitor, single point]	
CCC(C)(C)C1CCC(NC(=O)N2CCN(c3ccccc3O)CC2)CC1 (configuration not stated)	inactive	
CCOc1ccc(OCC)c(S(=O)(=O)NCCCN2CCOCC2)c1	inconclusive [inhibitor, full curve, poor fit]	
O=C(CCSc1ccccc1Cl)Nc1cccc([N+](=O)[O-])c1	inconclusive [activator, partial curve]	
Fc1ccc(/C=N/NC2=Nc3cccc4cccc2c34)cc1	inconclusive [inhibitor, partial curve, poor fit]	
O=C(CSc1nc2ccccc2c(=O)n1-c1ccccc1)N1CCc2ccccc2C1	inconclusive [activator, single point]	
Fc1cccc(Cl)c1CSc1ccc(-c2ccco2)nn1	inconclusive [activator, single point]	
CCNc1nc(NCC)nc(SCCOC(=O)Nc2ccc(Cl)cc2Cl)n1	inconclusive [inhibitor, single point]	
CCCNc1nc(Cl)nc(Nc2ccc(Cl)cc2)n1	inconclusive [inhibitor, single point]	
O=C1NC(=Nc2ccccc2)SC1Cc1cccc(Cl)c1Cl (configuration not stated)	inconclusive [inhibitor, single point]	
CN(C)Cc1c(O)ccc2c1O/C(=C\C=C\c1ccccc1)C2=O	inactive	
COC(=O)C1=C(C)N(Cc2ccccc2)C2=C(C(C)=O)C[C@@](O)(C(=O)OC)C(=O)N2C1c1ccccc1 (some centres not stated)		inactive: -4% [at 10 µM] and inactive: 5.7% [at 10 µM]
CCOC(=O)N1CCN(C(=O)/C(=C/c2cccc3ccccc23)NC(=O)c2ccc(OC)c(OC)c2)CC1	inactive	
CCCCCOC(=O)Cn1c(=O)c2c(nc(N3CCOCC3)n2C)n(C)c1=O	inactive	
Brc1ccc(-c2ccc(/C=N/Nc3nc4ccccc4[nH]3)o2)cc1	active: 5.01 µM	
O=C1CSC(c2cccnc2)N1CCc1ccccn1 (configuration not stated)	active: 11.2 µM	
CC(=O)Cc1nsc(Nc2ccc(C)cc2)n1	inactive	
CC(C)(C)c1ccc(Cn2c(=N)n(CC(O)c3ccco3)c3ccccc32)cc1 (configuration not stated)	inconclusive [inhibitor, single point]	
CCCCCCCCCCCCCCC(C(=O)O)C(O)(CC(=O)OC)C(=O)O (configuration not stated)	inconclusive [inhibitor, single point]	
CCOC(=O)N1CCN(C(c2cccnc2)c2ccc3cccnc3c2O)CC1 (configuration not stated)	active: 6.31 µM	

— PubChem BioAssay AID2546 (National Center for Advancing Translational Sciences (NCATS), 2010)
